The values below come from the RNAGym collection of RNA variant scans (doi:10.7554/elife.90254).

Read counts are not given, so values of variants with three or more changes are uncertain.

To fix the notation:
B1: LINE1-full (parent)
chain: UACGUAGGUGGUUUUCCCCUGAUAGUGCUAAGGGGGCCUGGAAGUUUGGACUGGGCAGAGCUCAACACAGCGUGGCAAAGUGGCUGUGGCUAGACUGCCUCUCUGGAUUCCUCGUCACUCAGCAGGGCAUCUCUGAGAGAAAUGCC

The variants in the series derive from B1. In words: self-cleavage, relative activity (ratio to wild type); higher = more cleavage; in vitro, sequencing; the parent is a self-cleaving ribozyme.
U26C A69U G89A: the self-cleavage worked out at 0.08.

Consider A6U C19U G34A U45C, for which the self-cleavage is 0.82. As for U39C A136U U143C, the figure is 0.48; as for A57C A129U U134A, 0.07. As to U13C A42G A57G A64C, the self-cleavage was 0. As for U13C U15C G83A U108A, the self-cleavage was found to be 1.05. To U1C A77G U96A U134A belongs 0.14; to A64G A67G U100C, 0. For U15G U20C U73C C128U, the self-cleavage turned out to be 1.45. For the variant C17G U45A G72A, the self-cleavage worked out at 0.94. On to C101U C123A A129G U130A, for which the self-cleavage was found to be 1.59. U1C A22U G32A U85C: the self-cleavage was 0.04.

Regarding U12C U87C A124G, the self-cleavage was determined as 0.21. To U15G U26A G32C U112C belongs 1.31; to U13C A22U A59G G114U, 0.12; to U62C A69U A117C A141G, 0. Regarding U9C C71U U134C, the self-cleavage turned out to be 0.62. In the case of A43G U52C A129G, the self-cleavage worked out at 1.92. For U13C G35A A124G, the self-cleavage amounted to 1.03. In the case of U47A A77G A121U A124U A140G, the self-cleavage is 1.66.

On to U14C U45G A129G, for which the self-cleavage was determined as 2.37. On to U12C A24U U26C A42G A50G C76U, for which the self-cleavage is 1.72. As to U20C A69G U109C, the self-cleavage is 0.34. As to G40A U81A U104G A121G, the self-cleavage worked out at 0.86. As to C3U G27A A64U A141G, the self-cleavage worked out at 0.18. Consider A42G U45A G48U U87C U134C A138G, for which the self-cleavage stood at 0.16.

As for U20C G25A U130C A138G, the self-cleavage turned out to be 1.23. Turning to G11C U29C U73A U87A, the self-cleavage amounted to 0.07. With U39A A69G G93A U96C, the self-cleavage was found to be 0.1. Take U13C A64G A107G: the self-cleavage is 0. To U81A A107G A140G belongs 2.46; to A30U A77U A117U, 0.71.

In the case of A30G A57G C95G, the self-cleavage was 0.06. For the variant G41A A79G A140G U143C C146A, the self-cleavage is 1.3. For the variant A2C U52C U104C A138G G144A, the self-cleavage turned out to be 1.84. With U14A A65G A77G A78U U85A G89A, the self-cleavage came out at 0.07. Regarding U85A U109A A124G, the self-cleavage worked out at 0.09. With A79G G106C U108C C146U, the self-cleavage was found to be 1.15.

For the variant A6U A24U U119C, the self-cleavage amounted to 0.88. Take U108C U115A G126U: the self-cleavage stood at 1.98.

Turning to U12G C61U A79G A138G, the self-cleavage amounted to 0.04. For the variant A22U A77G A138G, the self-cleavage was 1.57. To A57U G74A A117G A136G belongs 0.11.

A2G U100C A124G: the self-cleavage was 1.53. Turning to U13A A124G A140G, the self-cleavage came out at 0.08. Consider U13C U15C G27A A77U U112C, for which the self-cleavage was determined as 0.99. To A6U G35U A64C G105A belongs 0.34; to U45C A78U A92G, 0.27; to C71U U85A A94G, 0. Turning to A22G A57G U102A, the self-cleavage turned out to be 0.16. Turning to U20C A22G A92U, the self-cleavage stood at 0.51. As to A6U G44A U45C C90G U104C, the self-cleavage was found to be 0.14.

As for A79U U112C U130C, the self-cleavage was 2.7.

Consider U15C U115C A117U U132C, for which the self-cleavage was 1.1. Regarding G21U U47A A140G, the self-cleavage was 0.27. For the variant U20C A57G U62C A78G A129G, the self-cleavage was determined as 0. Turning to A2G U45C U62C, the self-cleavage came out at 0.

Regarding U62C A78G U100C, the self-cleavage turned out to be 0. On to A2G A43G U81C, for which the self-cleavage was determined as 0.

Consider U12C U52C U62C U132C, for which the self-cleavage stood at 0. U85C U108A A121G A141G: the self-cleavage was 0.24. To A43G U62C U115C belongs 0; to U26C G48U U119C A136G, 1.46; to A43U U81C A121U U132C, 1.89. For the variant A22G A64U G127C, the self-cleavage is 0.48. To A43G U46C U73C U108A belongs 0.48; to A6G U20C G21C U45C U52A A141G, 0.51.

In the case of U9C U12G U14C G55A, the self-cleavage amounted to 0.65. For the variant C128U A129U A138C, the self-cleavage was found to be 0.64. Regarding C3U U13C G27A U112C U132C A141G, the self-cleavage is 1.25.

On to U85A A121U A138G, for which the self-cleavage turned out to be 0.09. To A43G G60A A67G G70C A78G belongs 0.11. As for A42G A59G U62C A138U C145A, the figure is 0; as for U29C A64U U73C A141G, 0.29. As for U15A U45C G75A, the figure is 0.49; as for U20G U62C G82A, 0.07. Regarding U26C A94G A121U, the self-cleavage amounted to 0.53. As for G33A A57G U85C A107G, the figure is 0.27; as for A22G A57G A136U, 0.82. As for G27A A43C U46C G49U, the self-cleavage is 1.8. On to U13C U52A A77U A138G U143A, for which the self-cleavage stood at 1.7. On to U23C U29C A79G, for which the self-cleavage worked out at 1.61. Turning to A42G A43U A142G, the self-cleavage was 1.67. In the case of U20C A78G U109C, the self-cleavage is 1.73. To A59G A78G U85C belongs 0.09. As for U5C A69U U119C, the self-cleavage was 0.14.

For U26C G54C A140G, the self-cleavage is 0.77.

As to U13A A138C A141G, the self-cleavage worked out at 1.68. A2U G40A A42G: the self-cleavage is 1.35. For U9G G53A A92G, the self-cleavage worked out at 0.35. To U9A U45C U108C A138G belongs 0; to A2G U47A A50C U62A U112C, 0; to A78G U115A U134C, 1.49.

As for G25A A69U U100C U112A, the self-cleavage was determined as 0.07. On to A22G G40A A79U U104A A129G, for which the self-cleavage is 0.76. Take U13A A57G A64G: the self-cleavage was 0.63.

As to A30C U85A U109C, the self-cleavage is 0.1. U12C U13C A59G C63U: the self-cleavage was determined as 0.12. Regarding U12C U45C U100C U112C, the self-cleavage amounted to 2.83. Regarding A2U U13C A43U A140G U143C, the self-cleavage stood at 0.52.

On to U20C U46A U115C, for which the self-cleavage is 2.3. For the variant A22G C28U U73A U108A U119C, the self-cleavage came out at 0.6. For A57U U102A A121G A124G A141G, the self-cleavage was determined as 0. Take U13C A22G U23C: the self-cleavage is 0.92.

As for A42G A117G A124G U134C, the self-cleavage was 1.02.

In the case of U5A C66U A129G A142G, the self-cleavage amounted to 0.03. Regarding A2G G126A U130G, the self-cleavage amounted to 0.59. As to U39C A57U C146U, the self-cleavage was found to be 0.08.

Regarding A57G A138G A141G, the self-cleavage turned out to be 1.65. As for U13C A79G U104C, the figure is 1.53; as for U15C U39A U132C, 1.57; as for G53A A64G A67C U119A, 0.07. For the variant C37U U46C C120U, the self-cleavage was 1.39. For the variant A57U U91A U143C, the self-cleavage came out at 0.05. U12C U81A U91A A136U: the self-cleavage was found to be 1.3. To U5C A42G U130C belongs 0.77; to A2G G4A U14C C37A A78U U109C U119C, 1.86; to U52A U85A U109A C111U, 0.1. To U73C U109A A117C belongs 2.11; to U52A A65U G72C U109A A138G, 0.19. With G25U C63A A140U, the self-cleavage came out at 0.03. To U15A U26G C61U A92G U143G belongs 0.25. Turning to U20A A67G A69U A107G, the self-cleavage was 0.

As for A24G A78G A94G A124G U132A, the self-cleavage stood at 0. With U13C A50G U100C U132C, the self-cleavage came out at 0.

U14C A59G A77U G126U: the self-cleavage is 0.17. With A69U U100C G125A, the self-cleavage came out at 0.13. In the case of A6G A43G U134C, the self-cleavage came out at 0.3.

As to U81A A107G U119C, the self-cleavage was 0.89. As for C63G A64G A141G, the figure is 0; as for U29A A43G C145A, 1.46; as for A42G A77G G105A A142G, 1.64. As to A31G A42C G126A A142G, the self-cleavage was 1.18. As for U15C G35A A65G U81C U134A, the figure is 0.06; as for U14C G34A U46C U115G U132C, 1.84.

Turning to A64U U119C A129U A141G, the self-cleavage was determined as 0.57. U39C U91C A141G: the self-cleavage was determined as 0.1.

On to U1C A22U A43G U45C U115C, for which the self-cleavage was determined as 0. On to A50G A79G G86A U96C U115C, for which the self-cleavage turned out to be 0.2. With U52C A107U C123A A129G A136G A142G, the self-cleavage was 0.95. Regarding U1C U13C C84U A124U, the self-cleavage is 0.12. U26C G88U A142G: the self-cleavage was 0.08. As to A6G U47G A69G, the self-cleavage was 0.35.

Consider U13C U104A U130C A142G, for which the self-cleavage was determined as 1.48. In the case of U1A G53A A57U U119C, the self-cleavage is 0.3.

As to U104A A107G A138G, the self-cleavage is 0.5.

Consider U26C U45A A59G A140G, for which the self-cleavage came to 0.04. As to U15C A31G A57G G74U U130C, the self-cleavage came to 1.28. With A31U U96C U112C A136G, the self-cleavage was determined as 0. Regarding U9A A77U U143C, the self-cleavage is 0.9.

Regarding U14C A59G U85A G97U U108C, the self-cleavage is 0.11. For G35A U45C C95U U115A C118U, the self-cleavage came out at 0.04.

For the variant U45A U81A U85A, the self-cleavage is 0.06.

Regarding U12C C63A A79G U102C U112A, the self-cleavage was found to be 0.14.

Regarding U14C A57U A65G, the self-cleavage stood at 0.05.

For U5A U12G U20C U112C U143A, the self-cleavage was 1.12. As to U12C U47A A57G A92G U109C, the self-cleavage worked out at 0. Regarding U29C A67G U96G A140G, the self-cleavage was found to be 0. On to G72A A79G C110A C116U, for which the self-cleavage worked out at 1.05. On to U9G U134A A136G, for which the self-cleavage was 0.85. Consider U85A U134C A142G, for which the self-cleavage worked out at 0.19. For the variant A78G A121U G126A, the self-cleavage was 0.63.

As for A24G G34A A43G A77G U100C U143C, the self-cleavage stood at 1.67.

U73A C99U A121G: the self-cleavage was 0.89. In the case of U12C U14C A129G, the self-cleavage was determined as 0.81. For the variant U13C U14C U47C A136U, the self-cleavage amounted to 0. Regarding U47C A64U G125C, the self-cleavage is 0.69.
